Experimental findings from article PMC9856372 are described below.

Results are given in words; binding and its absence hold for the method and conditions named. Binding seen in cells or lysates may run through a third protein. Some binding calls cover weakened binding; strength is not graded here. Where a sequence is shown, tags or fusion partners need not be part of it.

The target in experiment [1] is T1, PTCH1 full CTD (1176-1447), HA-tagged (UniProt Q13635).
T1 sequence: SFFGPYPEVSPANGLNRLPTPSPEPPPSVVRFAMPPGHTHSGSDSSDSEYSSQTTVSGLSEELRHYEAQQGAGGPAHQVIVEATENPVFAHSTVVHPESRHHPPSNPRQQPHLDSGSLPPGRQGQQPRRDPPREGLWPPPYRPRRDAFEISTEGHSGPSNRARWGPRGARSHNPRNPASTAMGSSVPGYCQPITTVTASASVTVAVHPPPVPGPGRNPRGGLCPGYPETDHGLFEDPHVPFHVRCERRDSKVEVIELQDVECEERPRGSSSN
Briefly: co-IP; HEK293 cells co-transfected with HA-tagged PTCH1 CTD fragments and ATG101-FLAG; CTD fragments immunoprecipitated, immunoblotting; lysis buffer 50 mM Tris HCl pH 7.5, 150 mM NaCl, 1% NP-40, 0.05% sodium deoxycholate, 4 °C.

Experiment [2] has as its target T2, PTCH1 C-CTD (1308-1447), HA-tagged (UniProt Q13635).
T2 sequence: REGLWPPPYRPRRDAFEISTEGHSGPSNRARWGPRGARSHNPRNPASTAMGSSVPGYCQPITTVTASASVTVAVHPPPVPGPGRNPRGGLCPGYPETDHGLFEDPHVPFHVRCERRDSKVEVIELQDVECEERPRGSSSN
Described as above.

B1: ATG101-FLAG (protein, UniProt Q9BSB4 1-218)
chain: MNCRSEVLEVSVEGRQVEEAMLAVLHTVLLHRSTGKFHYKKEGTYSIGTVGTQDVDCDFIDFTYVRVSSEELDRALRKVVGEFKDALRNSGGDGLGQMSLEFYQKKKSRWPFSDECIPWEVWTVKVHVVALATEQERQICREKVGEKLCEKIINIVEVMNRHEYLPKMPTQSEVDNVFDTGLRDVQPYLYKISFQITDALGTSVTTTMRRLIKDTLAL
Consider B1, for which the binding result in experiment [1] and in experiment [2] was “binds” each time.
